# PubChem BioAssay AID485297 (National Center for Advancing Translational Sciences (NCATS), 2010)
# Among all 320,000 compounds or so, about 9,100 (2.8%) were called active. The shares of active, inactive and inconclusive entries below differ from those in the screen. Calls come from the whole dose curve; as a rule, active = well fitted activation curve with a large enough effect; inconclusive = small, poorly fitted or top-dose-only effect; inactive = no such curve, though single readings can be large or run the other way. No potency is given beside an inconclusive call; the fits are too rough.
# Assay: qHTS Assay for Rab9 Promoter Activators; note: nearly all actives have a fitted effect of over 60% in size
# Details: Huh7 Rab9 promoter-luciferase reporter, luminescence, 24 h; series mostly up to 9.22 µM
# Outline: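 Luminescence read-out: Huh7 cells stably expressing Rab9-luciferase, treated 24 h with compound at 37 °C, then lysed with luciferase reagent for 10 min at ambient before reading.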
# Potency is the fitted concentration of half-maximal effect; tags give direction and shape of the fitted curve.
row,SMILES,Potency
1,Oc1ccc(-c2csc(Nc3ncccn3)n2)c(O)c1,active: 1.12 µM
2,CCOC(=O)c1c(NC(=O)c2c(C(=O)O)cccc2[N+](=O)[O-])sc2c1CCCC2,inactive
3,CC(=O)Nc1ccccc1C(=O)C(=O)Nc1cccc(C(=O)NCC2CCCO2)c1 (centres undefined),"inconclusive [activator, partial curve, poor fit]"
4,C=CCN1N=C(/C=C/c2ccc(C)cc2)CCC1=O,"inconclusive [activator, single point]"
5,CC(=O)c1sc(NC(=O)c2ccccc2C)nc1C,"inconclusive [activator, partial curve]"
6,Cc1cc(N/C=C/C(=O)c2ccccc2)ccc1Br,active: 3.16 µM
7,Brc1ccc(-c2nnc(-c3ccccc3)o2)o1,"inconclusive [activator, partial curve]"
8,Cc1cc(=O)oc2cc(NC(=O)c3cccc(Br)c3)ccc12,"inconclusive [activator, partial curve]"
9,COc1cccc(NC(=O)c2cccc(Cl)c2)c1,active: 2 µM
10,O=C(COC(=O)C1CC1)c1c[nH]c2ccccc12,"inconclusive [activator, single point]"
11,Nc1nc2c(C(=O)N3CCOCC3)nnn2c2ccccc12,active: 3.16 µM
12,O=C(Nc1ccc([N+](=O)[O-])cn1)c1ccc2c(c1)OCO2,active: 1.58 µM
13,COc1ccc2nc(/C=N/NC(=O)[C@@H]3CCCN3C(=O)OC(C)(C)C)ccc2c1,"inconclusive [activator, partial curve]"
14,CCc1ccc(Nc2nnc(SCn3nnc4ccccc4c3=O)s2)cc1,"inconclusive [activator, single point]"
15,COc1cccc(C(=O)Nc2ccc3[nH]ncc3c2)c1,active: 3.55 µM
16,CCOC(=O)c1[nH]cnc1C(=O)NC1CCN(C(=O)OC(C)(C)C)CC1,inactive
17,CC(=O)c1ccc(OCc2cc(C(=O)N(C)Cc3ccccn3)no2)cc1,"inconclusive [activator, single point]"
18,O=C(Nc1nc2c(F)cc(F)cc2s1)c1ccccn1,active: 0.1 µM
19,COC(=O)c1ccc(CSC2=NCCS2)cc1,"inconclusive [activator, single point]"
20,Cc1cc(-c2nc3cccnc3s2)ccc1NS(=O)(=O)c1cccs1,active: 1.58 µM
21,O=C1CCCC/C1=C\Nc1ccc(Cl)cn1,"inconclusive [activator, single point]"
22,Cn1c(C(=O)Nc2ccccc2)cc2sccc21,"inconclusive [activator, single point]"
23,Cc1c(NS(=O)(=O)c2cc(C(=O)OCC(=O)N3CCC(C)CC3)ccc2Cl)c(=O)n(-c2ccccc2)n1C,"inconclusive [activator, single point]"
24,Cc1ccc(NC(=O)c2ccccc2O)cc1,active: 0.631 µM
25,COC(=O)c1cc(Cl)c(NC(=O)c2ccc(C(C)(C)C)cc2)cc1OC,"inconclusive [activator, partial curve]"

row,SMILES,Potency
1,Cn1c(-c2ccccc2F)cc2onc(-c3ccccc3)c2c1=O,active: 0.398 µM
2,O=C(NC1CCCC1)c1n[nH]c2ccccc12,active: 2.82 µM
3,Cc1csc(NC(=O)c2cn3ccccc3n2)n1,"inconclusive [activator, full curve]"
4,CC(C)C(NC(=O)c1ccco1)C(=O)NC1CCCCCC1 (centres undefined),inactive
5,CSc1nc(-c2ccccc2)cn1-c1ccc(NC(C)=O)cc1,"inconclusive [activator, partial curve]"
6,COC(=O)c1ccc(CN2C(=O)NC3(CCCCC3)C2=O)cc1,"inconclusive [activator, single point]"
7,COc1ccccc1C(=O)N/N=C/c1cnc2ccccc2n1,"inconclusive [activator, single point]"
8,CCOc1ccccc1-n1c(SCC(=O)Nc2ccccc2C(=O)O)nc2ccccc2c1=O,"inconclusive [activator, single point]"
9,Cc1c(C)c2ccc(OCC(=O)Nc3ccccn3)c(C)c2oc1=O,inactive
10,COc1ccc(-c2cc(C(=O)NC3=NCCS3)c3ccccc3n2)cc1OC,"inconclusive [activator, single point]"
11,CCOc1ccc(C(=O)NC(=S)Nc2ncccc2C)cc1[N+](=O)[O-],"inconclusive [activator, partial curve]"
12,NS(=O)(=O)c1ccc(NC(=O)Nc2cccc(Cl)c2)cc1,inactive
13,CC(=O)N1CCSc2ccc(S(=O)(=O)Nc3cccc(C)c3)cc21,"inconclusive [activator, single point]"
14,O=[N+]([O-])c1ccccc1/C=C/C=N/Nc1ccc(S(=O)(=O)Nc2ccc(Cl)cc2)cc1[N+](=O)[O-],inactive
15,CC(=O)Oc1cc(OC(C)=O)c2c(=O)c(-c3ccc4c(c3)OCCCO4)c(C)oc2c1,"inconclusive [activator, partial curve]"
16,Cc1c(-c2nc(-c3ccc(C(C)(C)C)cc3)no2)n(C)oc1=O,"inconclusive [activator, full curve]"
17,Cc1ccc(NC(=O)Nc2ccc3c(c2)nc(C)n3C)cc1,active: 0.501 µM
18,Cc1c(C(=O)N(CCO)Cc2ccccc2)oc2c(F)cccc12,"inconclusive [activator, full curve, poor fit]"
19,Cc1cc(SCC(=O)c2ccccc2)nc(C)n1,active: 2.51 µM
20,COc1ccccc1C(=O)N/C(N)=N/c1nc2ccccc2o1,"inconclusive [activator, partial curve]"
21,CCn1nc(C(=O)OCC(=O)NCC(C)C)c2ccccc2c1=O,inactive
22,CCN(CC)C(=O)c1ccccc1NC(=O)CN1C(=O)c2ccccc2S1(=O)=O,inactive
23,O=C(NCc1cccs1)c1cc(-c2ccccc2)on1,active: 2.51 µM
24,O=C(CCN1C(=O)c2ccccc2C1=O)Nc1ccc(-c2nc3ccccc3s2)cc1,active: 0.398 µM
